Hit rate of the full screen: of about 270,000 compounds, about 620 (0.23%) were called active. This list was built around the results that the source calls inconclusive (neither active nor inactive); the mix of calls is not that of the screen. The call rests on the fitted dose curve; in most records, active means well fitted inhibition curve with a large enough effect in the polarisation, with a control signal flat (not every such curve was filed as active); inconclusive means small, poorly fitted or top-dose-only effect, or effect the other way, or a change in a side signal; inactive means no such curve, though single readings can be large or run the other way; the % refers to the polarisation. A potency beside an inconclusive call is a rough fit, not a confirmed value. “Side channel” marks fits to a control or component signal instead of the main read-out.
Biological target: Menin (Homo sapiens) (UniProt O00255)
Sequence of UniProt O00255 (O00255 whole entry, looked up): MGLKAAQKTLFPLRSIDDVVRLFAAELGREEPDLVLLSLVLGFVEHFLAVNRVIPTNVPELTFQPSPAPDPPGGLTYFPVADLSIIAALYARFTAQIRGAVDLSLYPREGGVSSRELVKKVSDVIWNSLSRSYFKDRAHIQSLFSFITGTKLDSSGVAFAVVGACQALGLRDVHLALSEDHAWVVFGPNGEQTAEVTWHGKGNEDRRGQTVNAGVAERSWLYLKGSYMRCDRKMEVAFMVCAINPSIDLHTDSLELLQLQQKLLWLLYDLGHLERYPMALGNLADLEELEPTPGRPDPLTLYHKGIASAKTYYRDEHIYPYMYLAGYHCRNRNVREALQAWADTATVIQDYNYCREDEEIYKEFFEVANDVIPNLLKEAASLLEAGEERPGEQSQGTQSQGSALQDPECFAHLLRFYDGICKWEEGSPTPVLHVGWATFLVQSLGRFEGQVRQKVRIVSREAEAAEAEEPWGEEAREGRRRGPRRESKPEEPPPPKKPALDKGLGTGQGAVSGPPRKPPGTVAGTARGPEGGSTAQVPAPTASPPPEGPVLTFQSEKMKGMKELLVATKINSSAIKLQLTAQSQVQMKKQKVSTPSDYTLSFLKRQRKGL
Assay: qHTS Assay for Inhibitors Targeting the Menin-MLL Interaction in MLL Related Leukemias: Competition With Texas Red Labeled MLL-derived Mutant Peptide; on FP activity change, negative = inhibition: % of control where 0% means no effect
Settings: fluorescence polarization; FP activity change, negative = inhibition: at 61.6 µM (top of the series)
Potency means the concentration at half of the fitted maximal effect; tags describe the fitted curve by direction and shape or compound fluorescence and quenching.

Row | SMILES | Potency | FP activity change, negative = inhibition
1 | COc1cc(CNc2ccc(O)cc2)cc(Br)c1OCc1ccccc1F | inconclusive: 14.1 µM [quencher, side channel, partial curve] | 
2 | CCc1ccc(OCCCC(=O)Nc2ccc(N3CCCCC3)cc2)cc1 | inconclusive: 14.1 µM [inhibitor, partial curve, poor fit] | 
3 | COc1cc(/C=N/NC(=O)Cn2nc([N+](=O)[O-])cc2C)cc(Br)c1OCc1ccccc1 | inconclusive: 12.6 µM [quencher, side channel, partial curve] | 
4 | COc1cccc(C(=O)Oc2c(CN3CCOCC3)cc(Cl)c3cccnc23)c1 | inactive | 
5 | Cc1ccc(-n2c(SCC(=O)NCCC3=CCCCC3)nc3n[nH]c(C)c3c2=N)cc1Cl | inconclusive: 3.16 µM [fluorescent, side channel, single point] | 
6 | O=S(=O)(Oc1ccc(Cl)cc1)c1ccccc1 | inactive | 
7 | C/C(=N\Nc1cccc2cccnc12)c1ccc(C)cc1 | inconclusive: 28.2 µM [quencher, side channel, single point] | 
8 | Cc1ccccc1C(=O)Nc1cccc(N)c1 | inactive | 
9 | O=C(N/N=C/c1ccccn1)c1ccc([N+](=O)[O-])cc1 | inconclusive: 25.1 µM [quencher, side channel, single point] | 
10 | O=C1OC(c2ccc(F)cc2)=C/C1=C\c1ccc([N+](=O)[O-])o1 | inconclusive: 28.2 µM [quencher, side channel, single point] | 
11 | Cc1cc2nn(-c3ccc(F)cc3)nc2cc1N | inconclusive: 17.8 µM [quencher, side channel, partial curve] | 
12 | COc1ccc(CN2CCC(n3nccc3NC(=O)CCCc3ccccc3)CC2)cc1C | inconclusive: 15.8 µM [fluorescent, side channel, partial curve] | 
13 | CN(C)Cc1ccccc1-c1cc(NCc2ccccc2)ncn1 | inactive | 
14 | Cc1ccnc(SCC(=O)N2CCc3ccccc3C2)n1 | inconclusive: 31.6 µM [quencher, side channel, partial curve] | 
15 | O=C(O)CCC(=O)NNc1nc2ccccc2nc1-c1ccccc1 | inactive | 
16 | O=C(c1c[nH]c(C(=O)N2CCN(c3ccccc3F)CC2)c1)c1cccc(Cl)c1Cl | inconclusive: 22.4 µM [fluorescent, side channel, partial curve] | 
17 | COc1cccc(CNC23CC4CC(CC(C4)C2)C3)c1OCc1ccccc1 | inconclusive: 14.1 µM [fluorescent, side channel, partial curve] | 
18 | CCOC(=O)c1ccc(OCC(=O)c2ccc(O)cc2O)cc1 | inconclusive: 39.8 µM [quencher, side channel, single point] | 
19 | O=C(Nc1cccc2ncccc12)c1cccc(F)c1 | inactive | 
20 | Cc1cc(NC(=O)CN2C(=O)/C(=C/c3cccc(Br)c3)SC2=S)no1 | inconclusive: 22.4 µM [quencher, side channel, partial curve] | 

Row | SMILES | Potency | FP activity change, negative = inhibition
21 | CC12CN(Cc3ccccc3)CC(C)(CN(Cc3ccccc3)C1)C2=NO | inconclusive: 25.1 µM [inhibitor, partial curve] | 
22 | COc1ccc(C2c3ccc4ccccc4c3Oc3ncn(CCO)c(=N)c32)cc1 (stereo not given) | inconclusive: 1.78 µM [inhibitor, partial curve] | 
23 | COc1cc(CNCCCN2CCOCC2)cc(Br)c1OCc1ccc(Cl)cc1 | inconclusive: 3.55 µM [fluorescent, side channel, single point] | 
24 | CCOc1ccc2oc(C(=O)NCc3nc4ccccc4[nH]3)c(C)c2c1 | inactive | 
25 | CC1(C)Cc2c(sc(NC(=O)Nc3ccccc3)c2C(N)=O)CO1 | inconclusive: 11.2 µM [quencher, side channel, partial curve] | 
26 | CCOc1cc(C2Nc3ccccc3C(=O)N2c2ccccc2)ccc1O (stereo not given) |  | inactive: 3.48% [at 11.7 µM]
27 | COc1cc(S(=O)(=O)Nc2ccc(C)cc2)ccc1N=Cc1c(C)[nH]n(-c2ccc(C)cc2)c1=O | inconclusive: 22.4 µM [inhibitor, partial curve] | 
28 | Cc1nc2ccc(S(=O)(=O)NCC(=O)N3CCN(c4ccccn4)CC3)cc2s1 | inactive | 
29 | Nc1cc2c(cc1O)CCCC2 | inconclusive: 15.8 µM [quencher, partial curve] | 
30 | NNC(=O)CSc1cccc2cccnc12 | inactive | 
31 | C#CC(=O)N(c1cc(OC)ccc1OC)C(C(=O)NC1CCCC1)c1cccs1 (stereo not given) | inconclusive: 15.8 µM [inhibitor, partial curve] | 
32 | O=C(CCSc1nnc2scc(-c3ccccc3)n12)Nc1nc(-c2ccccc2)ns1 | inconclusive: 3.16 µM [quencher, side channel, full curve] | 
33 | CCOC(=O)c1ccc(NC2=CC(=O)C(=O)c3ccccc32)cc1 | inconclusive: 15.8 µM [quencher, single point] | 
34 | CCCCCCn1c(N)c(C#N)c2ccc([N+](=O)[O-])cc2c1=O | inconclusive: 10 µM [quencher, side channel, partial curve] | 
35 | O=C(CSc1nnc2c(n1)[nH]c1ccc(F)cc12)NCc1ccc(F)cc1 | inconclusive: 39.8 µM [fluorescent, side channel, single point] | 
36 | Cc1cc(C)n(-c2nc3ccccc3c(=O)n2OCC(=O)N(C)C)n1 | inactive | 
37 | O=C(NCc1ccccc1Cl)c1cc(C(=O)C2CC2)c[nH]1 | inconclusive: 39.8 µM [fluorescent, side channel, single point] | 
38 | Cc1ccc(NC(=O)CN2C(=O)c3ccccc3S2(=O)=O)c(C)c1 | inconclusive: 12.6 µM [inhibitor, partial curve] | 
39 | COc1cc(C(CCN2CCOCC2)c2c(OC)cc(OC)c3c(-c4ccccc4)cc(=O)oc23)cc(OC)c1OC (stereo not given) | inconclusive: 2.24 µM [fluorescent, side channel, full curve, poor fit] | 
40 | O=C(/C=C/c1ccccc1)N/C(=C/c1ccccc1)C(=O)Nc1ccccc1O | inconclusive: 39.8 µM [inhibitor, single point] | 

Row | SMILES | Potency | FP activity change, negative = inhibition
41 | Cc1ccc2[nH]c(C)c(CCNC(=O)c3c(N)no[n+]3[O-])c2c1 | inconclusive: 25.1 µM [quencher, side channel, single point] | 
42 | CCOC(=O)N1CCN(S(=O)(=O)c2ccc(C(=O)N(CCN(CC)CC)c3nc4c(C)cccc4s3)cc2)CC1 | inconclusive: 10 µM [fluorescent, side channel, partial curve] | 
43 | O=C(Nc1nnc(-c2ccc3c(c2)CCCC3)o1)c1ccccc1 | inconclusive: 28.2 µM [quencher, side channel, single point] | 
44 | Cc1nc(-c2ccc(NC(=O)Cc3ccccc3)cc2)cs1 | inconclusive: 39.8 µM [fluorescent, side channel, single point] | 
45 | COCCNC(=O)Cn1cc(/C=N/NC(=O)c2ccc(Oc3ccc(O)cc3)cc2)c2ccccc21 | inconclusive: 8.91 µM [quencher, side channel, partial curve] | 
46 | Cc1ccc(S(=O)(=O)Cc2ccc(C(=O)NCc3ccc4c(c3)OCO4)o2)cc1 | inconclusive: 12.6 µM [quencher, side channel, partial curve] | 
47 | Cn1ncc2c(Nc3ccc(-c4ccccc4)cc3)ncnc21 | inconclusive: 28.2 µM [quencher, side channel, single point] | 
48 | CC(C)CN(C[C@@H](OP(=O)(O)O)[C@H](Cc1ccccc1)NC(=O)O[C@@H]1CCOC1)S(=O)(=O)c1ccc(N)cc1 | inactive | 
49 | Cc1ccc(C(=O)Nc2ccc(O)cc2C(=O)O)cc1C | inconclusive: 11.2 µM [quencher, side channel, partial curve] | 
50 | CC1CC(C)CN(CCCNC(=O)c2csc3c2CCCCC3)C1 (stereo not given) | inactive | 
51 | O=C(N/N=C/c1cc(Cl)cc([N+](=O)[O-])c1O)c1ccc2c(c1)OCO2 | inconclusive: 12.6 µM [quencher, side channel, partial curve] | 
52 | CCCCc1cc(-c2n[nH]c(=S)o2)c2ccccc2n1 | inconclusive: 39.8 µM [quencher, side channel, single point] | 
53 | O=C(NCCc1ccccc1)c1ccc(NC2=NC3CS(=O)(=O)CC3S2)cc1 (stereo not given) | inconclusive: 22.4 µM [fluorescent, side channel, single point] | 
54 | O=C(Nc1sc2c(c1C(=O)O)CCCCC2)c1ccco1 | inconclusive: 15.8 µM [quencher, side channel, partial curve] | 
55 | CCN(CC)CCn1c(=N)n(CCOc2ccccc2)c2ccccc21 | inconclusive: 12.6 µM [fluorescent, side channel, partial curve, poor fit] | 
56 | CO/N=C/c1ccc(OC)c(Oc2nc(OC)cc(OC)n2)c1 | inactive | 
57 | COC(=O)c1c(OC)cc2c(c1C)Oc1c(Cl)c(O)c(Cl)c(C)c1C(=O)O2 | inconclusive: 8.91 µM [quencher, side channel, partial curve] | 
58 | CCCCn1c(NC(=O)c2ccccc2)c(C#N)c2nc3ccccc3nc21 | inconclusive: 12.6 µM [quencher, side channel, partial curve] | 
59 | COc1ccc(NC(=O)c2cc(N3C(=O)C4C5CCC(C5)C4C3=O)ccc2Cl)c(OC)c1 (stereo not given) | inconclusive: 39.8 µM [inhibitor, partial curve] | 
60 | O=C(O)c1ccc(COc2ccccc2/C=C2/NC(=O)N(c3cccc(Cl)c3)C2=O)cc1 | inconclusive: 39.8 µM [quencher, side channel, single point] | 

— PubChem BioAssay AID1768 (National Center for Advancing Translational Sciences (NCATS), 2009)
